# Screen size: about 420,000 compounds; about 50,000 (12%) were called active. Inconclusive means that the source gave no clear call. Such entries were picked first, then a sample of the others. The call rests on the fitted dose curve; in most records, active means well fitted inhibition curve with a large enough effect; inconclusive means small, poorly fitted or top-dose-only effect; inactive means flat fitted curve, though single readings scatter. No potency is given beside an inconclusive call; the fits are too rough.
# Assay: qHTS for Inhibitors of human tyrosyl-DNA phosphodiesterase 1 (TDP1): qHTS in cells in presence of CPT; further: nearly all actives have a fitted effect of over 55% in size
# Conditions: chicken DT40 Tdp1-/-;hTDP1 cells + 20 nM CPT, ATP luminescence, 48 h; series mostly up to 46.2 µM
# In short: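 Chicken DT40 Tdp1-/- cells stably complemented with human TDP1 were seeded at 400 cells/well in medium containing 20 nM camptothecin, exposed to pin-transferred compounds, and grown at 37 °C for at least 48 hr. Viability was read as ATP luminescence.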
# Potency means the concentration at half of the fitted maximal effect; tags describe the fitted curve by direction and shape.
row,Compound,Potency
1,CCOc1ccc(CCNC(=O)COC(=O)/C=C/c2ccccc2OC)cc1OCC,"inconclusive [inhibitor, single point]"
2,NNC(=O)c1sccc1OCc1ccc(F)cc1,inactive
3,CCOc1ccc2[nH]c(=O)c(CN(Cc3ccccc3)C(=O)N3CCCC3)cc2c1,active: 20.6 µM
4,Nc1cc(S(=O)(=O)Nc2ccc(Br)cc2)ccc1Cl,"inconclusive [inhibitor, single point]"
5,CC1(C)CC2C1CC[C@]1(C)CCC3C(C(=O)O)CC(=O)O[C@]32C1 (some centres undefined),"inconclusive [inhibitor, single point]"
6,Cc1ccc(-c2nc3n(n2)C(c2ccccc2Cl)C=C(c2ccc(Cl)cc2)N3)cc1 (centres undefined),"inconclusive [inhibitor, single point]"
7,NC(=O)CCC(NC(=S)Nc1ccccc1)C(=O)O (centres undefined),inactive
8,CC1CCN(S(=O)(=O)c2ccc3c(c2)CCN3C(=O)Nc2cccc(Br)c2)CC1,inactive
9,COc1ccc(-c2nc(SCc3ccccc3)n(C(=O)c3ccco3)n2)cc1,"inconclusive [inhibitor, single point]"
10,O=C(NCC(c1cccnc1)N1CCN(c2ccccc2F)CC1)c1ccco1 (centres undefined),"inconclusive [inhibitor, single point]"
11,CN(Cc1ccccc1)C(=O)C(=O)c1cn(CC(=O)N2CCCC2)c2ccccc12,inactive
12,COc1cc(/C=N/Nc2nc(-c3ccc(S(=O)(=O)N(C)C)cc3)cs2)ccc1O,active: 8.2 µM
13,O=C(Nc1ccccc1)OCc1cc(-c2ccc(Cl)cc2)on1,"inconclusive [inhibitor, single point]"
14,O=c1cc(-c2ccc(O)c(O)c2)oc2ccccc12,"inconclusive [inhibitor, single point]"
15,c1ccc(-n2nnnc2CN2CCOCC2)cc1,"inconclusive [inhibitor, single point]"
16,CC(=O)Nc1cccc(C(=O)N/N=C/c2cccc(C)n2)c1,"inconclusive [inhibitor, single point]"
17,C#CCNC(=O)C[C@@H]1C[C@@]2(C(=O)OC)CCCCC=C2N(Cc2ccco2)C1=O,inactive
18,O=C(Nc1ccn(CCCNCc2ccc3[nH]ccc3c2)c(=O)n1)OCc1ccccc1,"inconclusive [inhibitor, single point]"
19,COc1ccccc1NS(=O)(=O)c1cccc(C(=O)NCC(c2ccco2)N2CCCC2)c1 (centres undefined),"inconclusive [inhibitor, single point]"
20,CCOc1ccc(C(=O)c2cn(CC(=O)Nc3ccc(OC)cc3)c3cc4c(cc3c2=O)OCO4)cc1,"inconclusive [inhibitor, single point]"
21,Cn1c(C=O)c(C#CC(C)(C)O)c2ccccc21,"inconclusive [inhibitor, single point]"
22,CCNS(=O)(=O)c1ccc(NC(=O)c2ccccc2OCC)cc1,"inconclusive [inhibitor, single point]"
23,CC1(c2nnnn2Cc2ccccc2)CCC(=O)N1CCc1c[nH]c2ccccc12 (centres undefined),"inconclusive [inhibitor, single point]"

row,Compound,Potency
1,O=C(O)c1cc(N(Cc2ccccc2O)Cc2cc(O)ccc2O)ccc1O,"inconclusive [inhibitor, single point]"
2,CCOC(=O)c1c(S(=O)(=O)NCc2ccc(C)o2)c(C)n(C)c1C,"inconclusive [inhibitor, partial curve]"
3,O=C(CN1C(=O)NC2(CCCC2)C1=O)OCCOc1ccccc1,"inconclusive [inhibitor, single point]"
4,O=C(Nc1ccc2c(c1)OCCO2)C(CCc1ccccc1)N1CCN(c2ccc(F)cc2)CC1 (centres undefined),"inconclusive [inhibitor, single point]"
5,CCCN(CCC)CCNC(=O)C1CCN(Cc2nc(-c3ccc(Cl)cc3)oc2C)CC1,"inconclusive [inhibitor, single point]"
6,Cc1onc(-c2ccccc2)c1C(=O)Nc1ccc(S(=O)(=O)N2CCCCC2)cc1,"inconclusive [inhibitor, single point]"
7,Cn1c(=O)oc2cc(S(=O)(=O)Nc3ccccc3F)ccc21,inactive
8,CCS(=O)(=O)N1CC(=O)N(c2cccc(Cl)c2)C(C)(C(=O)NC2CCCCCC2)C1 (centres undefined),inactive
9,CCCCNC(=S)Nc1ccc(F)cc1,inactive
10,CC(O)CNc1nc2c(c(=O)n(C)c(=O)n2C)n1Cc1cccc(Br)c1 (centres undefined),"inconclusive [inhibitor, single point]"
11,CC(C)CCn1c(=O)c2cccnc2n(CC(=O)Nc2ccccc2)c1=O,"inconclusive [inhibitor, partial curve, poor fit]"
12,CN(C(=O)NC1CC(=O)N(c2ccc3c(c2)OCCO3)C1)c1ccccc1 (centres undefined),inactive
13,O=C(NC1CC1)c1cc2cc(Br)ccc2s1,"inconclusive [inhibitor, partial curve]"
14,CCCCn1nc(C(=O)Nc2cccc(C(=O)NC3CC3)c2)c2ccccc2c1=O,"inconclusive [inhibitor, partial curve]"
15,O=C(O)c1ccc(NC2=C/C(=N/S(=O)(=O)c3cccs3)c3ccccc3C2=O)cc1,active: 9.2 µM
16,Cc1nc(/N=C(\N)NC(=O)c2ccccc2)nc2ccccc12,active: 29.1 µM
17,C[C@@H]1CN([C@@H](C)CO)C(=O)CCCn2nncc2CO[C@@H]1CN(C)C(=O)Nc1ccc(C(F)(F)F)cc1,inactive
18,O=C(NNC(=O)c1cc(-c2ccncc2)nc2ccccc12)Nc1ccc(F)cc1,"inconclusive [inhibitor, single point]"
19,N#Cc1c[nH]n2c(NC3CCCC3)c(-c3cccc(Br)c3)nc12,"inconclusive [inhibitor, single point]"
20,CS(=O)(=O)N(Cc1nc2sc3c(c2c(=O)[nH]1)CCCC3)C1CCCCC1,active: 20.6 µM
21,CCc1cc(=O)n2[nH]c(C)c(-c3ccccc3OC)c2n1,inactive
22,CC(=O)Oc1ccc(C(=O)Nc2ccc(S(=O)(=O)NCC3CCCO3)cc2)cc1 (centres undefined),"inconclusive [inhibitor, single point]"
23,COc1ccccc1N=C1NC(=O)/C(=C/c2ccc(N(C)C)cc2)S1,active: 2.06 µM

row,Compound,Potency
1,CCN(CC)CCNC(=O)c1ccc(NC(=O)c2cccc(S(=O)(=O)Nc3ccc(C)cc3)c2)cc1,"inconclusive [inhibitor, single point]"
2,O=C(NCc1cnc2ccccn12)C1CCC(=O)N(Cc2ccccc2F)C1 (centres undefined),inactive
3,Cc1ccn2c(NC(=O)c3cccc(Cl)c3)c(-c3ccccc3)nc2c1,"inconclusive [inhibitor, single point]"
4,O=C(CN1C(=O)/C(=C/c2ccc(C(F)(F)F)cc2)Sc2ccccc21)NCCCN1CCOCC1,active: 25.9 µM
5,COCCCNC(=O)Cn1cc(/C=C(\C#N)C(=O)NC2CCCC2)c2ccccc21,inactive
6,COc1cccc(N2CC(NC(=O)c3ccc4ccccc4c3)CC2=O)c1 (centres undefined),"inconclusive [inhibitor, single point]"
7,Cc1cc(=O)oc2c3c(cc(OCC(=O)NC4CC4)c12)OC(C)(C)CC3,inactive
8,O=C(Nc1ccc(-c2nc3ccccc3s2)cc1)c1cc(-n2cnnc2)ccc1Cl,active: 23.1 µM
9,COCCn1c(SCC(=O)Nc2cc(Cl)ccc2OC)nc2c(c1=O)SC(C)C2 (centres undefined),"inconclusive [inhibitor, single point]"
10,COc1cc(C#Cc2c(-c3cncn3C)n(C)c3ccc(-c4ccc(OC)c(OC)c4)cc23)cc(OC)c1,"inconclusive [inhibitor, single point]"
11,CCc1ccc(CNc2ncc(-c3cccc(OC)c3)n2C)cc1,active: 4.11 µM
12,COc1cccc(CN(C)CC(=O)Nc2ccccc2N2CCOCC2)c1OC,"inconclusive [inhibitor, single point]"
13,Cc1cccc(NC(=O)CN2C(=O)S/C(=C\c3ccccn3)C2=O)c1,"inconclusive [inhibitor, partial curve]"
14,CCCC(=O)N1CCc2cc(OC)c(OC)cc2C1COc1ccccc1OC (centres undefined),"inconclusive [inhibitor, single point]"
15,Cc1ccc(S(=O)(=O)/N=C(/Nc2cccc(O)c2)c2ccccc2)cc1,"inconclusive [inhibitor, partial curve]"
16,S=C(NCCc1ccccc1)Nc1ccc(Nc2ccccc2)cc1,active: 16.4 µM
17,c1ccc(-c2cc(-c3nnc4sc(-c5ccccn5)nn34)[nH]n2)cc1,active: 11.6 µM
18,COc1ccc(C2=Nc3ccccc3NC(=O)C2N(C(=O)c2ccnc3ccccc23)c2ccccc2)cc1 (centres undefined),"inconclusive [inhibitor, single point]"
19,COc1ccc(-c2noc(CCC(=O)NC3CCN(Cc4ccccc4)CC3)n2)cc1,"inconclusive [inhibitor, single point]"
20,CCOC(=O)Cc1cc(C(=O)Nc2ccc(Br)cc2)sc1-c1ccc(C)cc1,"inconclusive [inhibitor, single point]"
21,CSc1ccc(CNCCN2CCOCC2)cc1,inactive
22,CC1=NN(c2ccccc2)C(=O)C1C(=O)c1ccc([N+](=O)[O-])cc1 (centres undefined),"inconclusive [inhibitor, single point]"
23,CC1(c2cccc(Br)c2)NC(=O)N(CC(=O)Nc2ccc3c(c2)OCCO3)C1=O (centres undefined),"inconclusive [inhibitor, single point]"
